Assay results as given in the RNAGym collection of RNA variant scans (doi:10.7554/elife.90254).
Read counts are not given, so values of variants with three or more changes are uncertain.

B1: LINE1-mini (parent)
chain: GGCAGAGCUCAACACAGCGUGGCAAAGUGGCUGUGGCUAGACUGCC

Variants of: B1
Assay: self-cleavage, relative activity (ratio to wild type); higher = more cleavage; in vitro, sequencing; the parent is a self-cleaving ribozyme
With C3U A4U G5A the self-cleavage was 0.09.
In the case of G7A C23G C31G G33A, the self-cleavage is reported as 0.06.
In the case of G5U G7C G27U A39U, the self-cleavage is reported as 0.08.
C13A G22A G27U A41U showed a self-cleavage of 0.15.
With C3G C13U U32C A39C G40U G44C the self-cleavage was 0.06.
For A11C G30A G36A, the self-cleavage was 0.01.
G7C C15G C31U G36C gave a self-cleavage of 0.02.
Variant A6C A12U U34G G36U G40A has a self-cleavage of 0.01.
G7U A11U G29U C46U showed a self-cleavage of 0.02.
G22A G35C C42U C46G gave a self-cleavage of 0.17.
For A6U A12G A41C C45U, the self-cleavage was 0.08.
In the case of G5A C13G G40U C42A, the self-cleavage is reported as 0.01.
For A14C A24C U38C, the self-cleavage was 0.06.
With C3A A6G A16U G19U the self-cleavage was 0.04.
A12G C15A A16G gave a self-cleavage of 0.08.
Work on C10G A11C C31G yielded a self-cleavage of 0.02.
In the case of C3G A4C C23G G33C A39U, the self-cleavage is reported as 0.03.
G21A C31A G33A U34C C37G showed a self-cleavage of 0.05.
Work on A4U G5C A14U G19A A25U yielded a self-cleavage of 0.07.
G2A G5A A11G showed a self-cleavage of 0.11.
Variant A4C C31U G33U U34A has a self-cleavage of 0.09.
Variant G2C A11U C23U C46U has a self-cleavage of 0.01.
In the case of A6G A26G G36C, the self-cleavage is reported as 0.02.
In the case of G17A C18U G21U, the self-cleavage is reported as 0.1.
G7C C8G A25U U32A gave a self-cleavage of 0.14.
C23A G29U A39C showed a self-cleavage of 0.2.
Variant A12C C18G G19U U38C G40A has a self-cleavage of 0.02.
Work on G5U G35C A41C yielded a self-cleavage of 0.13.
For G19C U28C G33C G36A C37A, the self-cleavage was 0.06.
Work on G17A C18A U28C G29C yielded a self-cleavage of 0.5.
In the case of C3A A4G C15U A16U U32G, the self-cleavage is reported as 0.07.
Work on A4G A6G U9A G27C U28C C45U yielded a self-cleavage of 0.08.
For G1C G2U C18U G22A C42U, the self-cleavage was 0.03.
Variant C18A U20C U34A C46A has a self-cleavage of 0.04.
For A6G A25C G44U, the self-cleavage was 0.02.
Work on A24U G30A G40C yielded a self-cleavage of 0.14.
G2U G21A C37U U43G showed a self-cleavage of 0.03.
Work on A6C A12C G29U G33A G40U yielded a self-cleavage of 0.01.
Work on G2U G21A G22U A24U G27A G33A U38A G44C yielded a self-cleavage of 0.06.
With G1C G2C C15A G22C the self-cleavage was 0.03.
A12C C15U U34C showed a self-cleavage of 0.13.
For C8A A12G A25U G27A C45U, the self-cleavage was 0.06.
Variant G1A G2U A6C A11U G17A A26G A39C U43C C45A has a self-cleavage of 0.01.
Variant U20G C23U A26G C42U has a self-cleavage of 0.14.
With C10A C42A G44A the self-cleavage was 0.01.
Variant A4C C8A U38G has a self-cleavage of 0.11.
A11U A16U U28G U34C G35C gave a self-cleavage of 0.01.
A25G A26C G27U G35U U43A showed a self-cleavage of 0.02.
For C10A A25C A41U, the self-cleavage was 0.02.
A14U G19C A24G showed a self-cleavage of 0.35.
Variant A14C C18A G30C G44C C45G has a self-cleavage of 0.02.
G1U A39C G40U gave a self-cleavage of 0.03.
With G2U U28A U43C C46A the self-cleavage was 0.01.
For G2U C15A G30A C42U G44C, the self-cleavage was 0.03.
For G2C A12C A25U C45A C46A, the self-cleavage was 0.03.
G1U G19A C31G U34A gave a self-cleavage of 0.02.
In the case of U9A G22U C45U, the self-cleavage is reported as 0.34.
For C10A A14C U28G C46A, the self-cleavage was 0.01.
For C13G C18A G19A C31U, the self-cleavage was 0.06.
For C13G A14G G17C, the self-cleavage was 0.02.
Work on C3A A39C C46U yielded a self-cleavage of 0.08.
With C3U A6C C8G U28C U32C U38C the self-cleavage was 0.01.
With C15G A26U G29U G40U the self-cleavage was 0.04.
Variant C3G G5U G17A has a self-cleavage of 0.02.
A6C A11U A12U C31A G44C gave a self-cleavage of 0.
Work on A4U C8U C10A C13U A24U A41U G44A yielded a self-cleavage of 0.04.
Work on C18A U20G U28C U34A yielded a self-cleavage of 0.01.
Variant A6C A39G C42A has a self-cleavage of 0.08.
In the case of G7U A16G G35C G44U, the self-cleavage is reported as 0.04.
With G1U A26G C31U U34C U38A the self-cleavage was 0.
For G5A C8G G19U A39U, the self-cleavage was 0.01.
In the case of C18U G21U U34C, the self-cleavage is reported as 0.09.
Work on C3A U9A A14C G21U G30U C46A yielded a self-cleavage of 0.05.
In the case of A11C A16G A24C G44U C46U, the self-cleavage is reported as 0.01.
G1A A12U C31A showed a self-cleavage of 0.08.
Variant C3G C8U G30U C31U C37G C46U has a self-cleavage of 0.13.
With G7C C13A G19C U20A the self-cleavage was 0.06.
Work on U20C A25G C37A C46U yielded a self-cleavage of 0.04.
With G1U G7C G21A the self-cleavage was 0.1.
C8A A11G A14U G29C G30A gave a self-cleavage of 0.01.
With G21U G22A G36A the self-cleavage was 0.13.
In the case of C13U A16C A24U, the self-cleavage is reported as 0.07.
A25U G44U C45U gave a self-cleavage of 0.07.
Variant C3U G5C C46A has a self-cleavage of 0.03.
Work on A25G C42U G44U yielded a self-cleavage of 0.05.
In the case of C8U C37A U38A, the self-cleavage is reported as 0.11.
In the case of U20A G21A G44C, the self-cleavage is reported as 0.25.
G21A G29U A41G gave a self-cleavage of 0.12.
For G1U G19U C23U A39G, the self-cleavage was 0.03.
A4C A11G U28G gave a self-cleavage of 0.03.
In the case of A6U G22U G30C, the self-cleavage is reported as 2.5.
Work on C3G G30A C37U U38C yielded a self-cleavage of 0.01.
With A12G U34A A41C the self-cleavage was 0.01.
C8U C23G G40U gave a self-cleavage of 0.05.
In the case of U9A C10U A14C G36U G40C A41C C42A, the self-cleavage is reported as 0.02.
G2U C18A C31G G35U C42G showed a self-cleavage of 0.03.
In the case of G7U A26G U34A, the self-cleavage is reported as 0.04.
A12G C13U G30A G36U gave a self-cleavage of 0.02.
G2A G5U G7A U9G U34A C46U gave a self-cleavage of 0.13.
C8G A14G U28C A41C showed a self-cleavage of 0.02.
G2C A25G G40C C46G showed a self-cleavage of 0.01.
In the case of G5A A25U C37U, the self-cleavage is reported as 0.18.
Work on C13A A24C G35A G36C G44C yielded a self-cleavage of 0.02.
For A4U G29U C37U G40A G44C, the self-cleavage was 0.2.
Variant G2A C18G C23G U34C has a self-cleavage of 0.07.
With C15G U28A U38A the self-cleavage was 0.04.
C8G G29C G35C gave a self-cleavage of 0.08.
In the case of C15G G21U A39C G40A, the self-cleavage is reported as 0.
For C10A A11C A16G G21U A26G G36U U38G, the self-cleavage was 0.01.
Variant C10U G36U U43C has a self-cleavage of 0.12.
A25C U28A C37G C42A gave a self-cleavage of 0.22.
C10A G27U C37U C46G showed a self-cleavage of 0.01.
With A4U C10U A11C A12G G33C C45U the self-cleavage was 0.01.
Variant G5A C8U U9C G21A G22A C23A G27U G35U C37A has a self-cleavage of 0.01.
With G17C C37G G40U C42U the self-cleavage was 0.02.
For G2A G30C C37U, the self-cleavage was 0.22.
In the case of C10A A12C A41C, the self-cleavage is reported as 0.02.
With C18G G22C G35U C42G the self-cleavage was 0.03.
G1U G33U G35A showed a self-cleavage of 0.03.
C31G U34A A41G showed a self-cleavage of 0.02.
Work on U9G C23G U32G yielded a self-cleavage of 0.02.
G1A G2C A6C U20G U32G C45G gave a self-cleavage of 0.02.
In the case of A6G C15A A16G U20A, the self-cleavage is reported as 0.01.
In the case of U32A C37G U43A, the self-cleavage is reported as 0.09.
G5C A11U G22A C45G showed a self-cleavage of 0.03.
With A6C G29U G35A U38C the self-cleavage was 0.07.
In the case of G2C C31A G35C, the self-cleavage is reported as 0.07.
In the case of G1U G29U G40U C46A, the self-cleavage is reported as 0.03.
Variant A24U A26C U38A has a self-cleavage of 0.14.
A12C G29U U34G gave a self-cleavage of 0.07.
For G2C A4U G35U, the self-cleavage was 0.03.
Work on C13A U20C C45A yielded a self-cleavage of 0.05.
Work on G19U A25C A26G G30C G40C yielded a self-cleavage of 0.03.
For G2A G19U C46A, the self-cleavage was 0.83.
Variant A6U A41G C42A C45U has a self-cleavage of 0.09.
In the case of G17U G19C A25G G27A, the self-cleavage is reported as 0.18.
G1U C8G G30C gave a self-cleavage of 0.02.
Variant G2A U32A G35U has a self-cleavage of 0.13.
For G2A G17U G36U, the self-cleavage was 0.05.
Work on C3G C18A G33U C37A C46U yielded a self-cleavage of 0.04.
With C13A G29U C46A the self-cleavage was 0.19.
A6C G17A A25C C45U showed a self-cleavage of 0.08.
Variant A14C G22C C31G U43A has a self-cleavage of 0.03.
In the case of A12G C37A A39G C46A, the self-cleavage is reported as 0.05.
A14G G29C A41U gave a self-cleavage of 0.18.
A11U G35U A41C gave a self-cleavage of 0.
Variant U20G G21C G22C has a self-cleavage of 0.16.
Variant G5U A11G A24C has a self-cleavage of 0.01.
With A6G C10A G17A the self-cleavage was 0.01.
For C13A C15G G36C, the self-cleavage was 0.05.
For G17A A26U G27C, the self-cleavage was 0.04.
Variant G5C C8G U9G C10A G21U C23U has a self-cleavage of 0.01.
Variant C8G U9A U34C G40C has a self-cleavage of 0.21.
With G2A C10A C31A the self-cleavage was 0.05.
With A4G G35U C37U G40A the self-cleavage was 0.1.
G7C C10U A12C U34A showed a self-cleavage of 0.01.
With U9C G21C G35A the self-cleavage was 0.09.
Variant C8G A14U C23G G30A has a self-cleavage of 0.11.
For G19C U34C G35A C42U, the self-cleavage was 0.07.
C8G U9A U20A G27C gave a self-cleavage of 0.
In the case of C3A A11G C18U U38A, the self-cleavage is reported as 0.08.
Work on A6U A25C A41C yielded a self-cleavage of 0.02.
For A4G U9A C46A, the self-cleavage was 0.27.
For G1C C10A G22A G30U G36A C42A, the self-cleavage was 0.
Work on G21U C42G U43C G44U yielded a self-cleavage of 0.02.
Variant C23G U38A C46A has a self-cleavage of 0.17.
Variant C10A C23A C45G has a self-cleavage of 0.01.
